Test results: PubChem BioAssay AID488969 (Vanderbilt High Throughput Screening Facility, 2010)
Whole data set: some 110,000 compounds, median “z-score” near -0.1, cut for the highest 2% near 2. Some of the results follow. Activity calls are given as the source filed them.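 The calls were made as follows: active = z-score in the third read window above 3 or below -3; inactive = the rest.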

Target: Metabotropic glutamate receptor 8 (Rattus norvegicus) (UniProt P70579)
Assay: rat mGluR8 modulators via GIRK flux, primary screen, cell-based, thallium flux, HTS (AID 488969)
Conditions: HEK293 rat mGluR8, GIRK (G protein-gated inwardly rectifying potassium channel) thallium flux, FluoZin2; at 10 µM; stronger effect = higher value; submaximal glutamate (EC20) added with thallium

Sequence of UniProt P70579 (P70579 whole entry, looked up): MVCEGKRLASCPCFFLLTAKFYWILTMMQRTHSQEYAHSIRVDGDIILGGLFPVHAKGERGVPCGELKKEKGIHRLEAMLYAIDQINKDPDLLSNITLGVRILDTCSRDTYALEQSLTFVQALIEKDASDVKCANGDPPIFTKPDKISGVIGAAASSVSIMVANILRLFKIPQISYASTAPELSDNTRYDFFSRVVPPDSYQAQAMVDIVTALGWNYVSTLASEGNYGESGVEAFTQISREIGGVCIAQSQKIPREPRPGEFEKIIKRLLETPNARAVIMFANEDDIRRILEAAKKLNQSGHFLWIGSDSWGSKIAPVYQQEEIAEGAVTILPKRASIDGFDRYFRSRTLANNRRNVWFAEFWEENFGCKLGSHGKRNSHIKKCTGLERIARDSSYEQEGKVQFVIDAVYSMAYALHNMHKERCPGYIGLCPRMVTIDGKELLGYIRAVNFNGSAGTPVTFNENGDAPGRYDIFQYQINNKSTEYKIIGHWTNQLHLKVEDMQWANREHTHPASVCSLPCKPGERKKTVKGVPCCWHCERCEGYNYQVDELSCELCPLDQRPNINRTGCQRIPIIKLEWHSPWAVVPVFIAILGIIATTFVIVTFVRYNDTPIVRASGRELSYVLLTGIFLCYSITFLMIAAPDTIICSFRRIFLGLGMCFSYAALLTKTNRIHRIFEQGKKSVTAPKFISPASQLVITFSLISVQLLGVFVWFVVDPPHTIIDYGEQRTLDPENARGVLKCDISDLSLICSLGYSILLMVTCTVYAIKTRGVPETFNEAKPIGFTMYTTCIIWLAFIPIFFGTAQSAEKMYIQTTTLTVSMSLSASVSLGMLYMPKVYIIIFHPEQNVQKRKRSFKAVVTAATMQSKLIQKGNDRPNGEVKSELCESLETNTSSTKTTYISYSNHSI

| SMILES | z-score |
| --- | --- |
| CS(=O)(=O)N(CC(=O)NCCC1=CCCCC1)c1ccc2c(c1)OCO2 | 0.874 |
| COc1ccc(C(=O)NN(c2ccccc2)c2ccccc2)cc1 | -0.0602 |
| O=C(CCCN1C(=O)c2ccccc2C1=O)NCC1CCCO1 (centres undefined) | -0.206 |
| CCN(CC)c1ccc(/C=c2\sc3nnc(-c4ccccc4Cl)n3c2=O)cc1 | 0.174 |
| Cc1ccc(S(=O)(=O)c2c(C)nn(C(C)(C)C)c2OC(=O)c2ccc(Br)o2)cc1 | -0.239 |
| O=C(Cc1ccc2c(c1)CCCC2)Nc1ccccc1Br | 0.000969 |
| O=C(Nc1ccc(N2CCCCC2)cc1)c1ccc2c(c1)OCCO2 | -0.0957 |
| CCC(C(=O)Nc1ncccn1)(C(F)(F)F)C(F)(F)F | -0.452 |
| CC(=O)C(N=Nc1ccccc1)(Sc1nnc(-c2ccccc2)n1-c1ccccc1)C(=O)Nc1ccccc1 (centres undefined) | 0.064 |
| CCOC(=O)c1c(NC(=O)CCc2ccc(CC)o2)sc(C)c1C | 0.0113 |
| O=C(Nc1ccccn1)NC12CC3CC(CC(C3)C1)C2 | -0.535 |
| CCCC(=O)NC(C)c1nc2ccccc2[nH]1 (centres undefined) | -0.0881 |
| CC(C)C(=O)N1CCN(c2ccc([N+](=O)[O-])c(NC(C)c3ccccc3)c2)CC1 (centres undefined) | -1.73 |
| N/C(=N\OC(=O)c1cc(Cl)ccc1Cl)c1ccccn1 | -0.479 |
| COc1ccc(CCNC(=O)c2ccn[nH]2)cc1OC | 0.156 |
| Cc1cc(C)nc(SCc2cn3cc(Cl)ccc3n2)n1 | -0.113 |
| CC(C)(C)c1cccc(/C=N/O)c1O | 1.27 |
| Clc1ccc(-c2nnc3ccccn23)cc1 | -0.45 |
| Cc1ccc2[nH]c3c(c2c1)CN(C)CC3 | 0.196 |
| CCNC(=O)CC1SC(=Nc2ccc(Cl)cc2)N(CC)C1=O (centres undefined) | -0.31 |
| CN(C)c1ccc2c(O)cc(=O)n(C)c2c1 | 0.0918 |
| Clc1ccc(Cl)c(OCCCCNCc2ccccc2)c1 | -0.0845 |
| COC(=O)c1c(-c2ccccc2)csc1N | -0.446 |

| SMILES | z-score |
| --- | --- |
| CC(C)c1ccccc1NC(=O)COC(=O)Cc1ccsc1 | 0.502 |
| O=C1CC(=O)N(Cc2cccs2)C(=O)N1 | -0.277 |
| CCCn1cc(S(=O)(=O)CC(=O)Nc2ccc(OC)cc2OC)c2ccccc21 | -0.669 |
| Cc1ccc(C(=O)Nc2cccc(C(=O)NCc3ccccc3)c2)cc1 | 0.486 |
| c1ccc2c(-n3cccn3)cccc2c1 | -0.0595 |
| CCOC(=O)c1ccc(N/C=C/C(=O)c2ccco2)cc1 | 0.0424 |
| CCN1CCN(c2cc(=O)n(C3CCCCC3)c(=O)[nH]2)CC1 | 0.288 |
| O=C(Cn1cnc([N+](=O)[O-])c1)Nc1cc(Oc2ccc(Cl)cc2Cl)cc([N+](=O)[O-])c1 | -0.00842 |
| O=C(Nc1nccs1)C1CCCN(S(=O)(=O)c2cccnc2)C1 (centres undefined) | -0.233 |
| O=C(CSc1nnc(-c2ccc(S(=O)(=O)N3CCCC3)cc2)o1)NCc1ccco1 | -0.555 |
| CC1CCC(C(C)C)C(OC(=O)CSc2nnc(N)s2)C1 (centres undefined) | -0.18 |
| CCSc1nnc2c(n1)OC=Nc1ccc(Br)cc1-2 | -2.12 |
| Cc1ccc(-c2nnc(N(C)C(=O)c3cccnc3)s2)cc1 | -0.281 |
| CC(C)NC(=O)c1ccccc1NC(=O)CCS(=O)(=O)Cc1ccccc1 | 0.338 |
| O=C(NNC(=O)C1CCCCC1)C(=O)NC1CCCCC1 | 0.347 |
| Cc1noc(C)c1S(=O)(=O)N1CCCC(C(=O)Nc2nccs2)C1 (centres undefined) | -0.132 |
| COc1cc(/C=C/C(=O)NCCN2CCOCC2)cc(OC)c1OC | -0.867 |
| C=CCC(Nc1ccccc1)C12C=CC(O1)C(C(=O)OC)=C2C(=O)OC (centres undefined) | 0.507 |
| CCCCc1n[nH]c2c1/C(=N/O)CC(C)(C)C2 | 0.0176 |
| O=C(Nc1cccc(-c2nc3ccccc3s2)c1)c1cc(=O)c2ccccc2o1 | -0.035 |
| COc1ccc(NC(=O)CC(=O)Nc2ccc(OC)cc2OC)c(OC)c1 | -0.0921 |
| COc1ccc(-c2nc(CSCC(=O)N3CCN(C(=O)c4ccco4)CC3)c(C)o2)cc1OC | -0.0951 |
| CC(=O)NN1C(=O)/C(=C/c2ccc(Br)o2)SC1=S | -0.178 |

| SMILES | z-score |
| --- | --- |
| O=[N+]([O-])c1cccc(/C=N/n2c(C3CCCCC3)n[nH]c2=S)c1 | 0.141 |
| CN(Cc1ccccc1)C(=O)CSc1nc2ccccc2c(=O)n1Cc1ccco1 | -0.91 |
| Cn1c(CCCOc2ccc(Cl)cc2Cl)nnc1SCC(=O)Nc1cccc(F)c1 | -0.0527 |
| COc1ccc(NS(=O)(=O)c2cc(NC(=O)c3ccc(C)o3)ccc2N2CCCCC2)cc1 | -0.024 |
| O=c1sc2ccccc2n1CCCOc1ccccc1 | -0.0722 |
| Cc1sc2nc(SCC(=O)OC(C)C)n(C)c(=O)c2c1C | 0.997 |
| O=C(c1ccc(N2CCCCCC2)c([N+](=O)[O-])c1)N1CCc2ccccc21 | 0.158 |
| O=C1c2ccccc2C(=O)N1CCn1c(=O)oc2ccccc21 | 1.56 |
| CC(=O)Nc1cccc(C(=O)OC(C(=O)c2ccc(C)c(C)c2)c2ccccc2)c1 (centres undefined) | -0.114 |
| Cc1cc2c3c(c1C)C1(C(=O)N3C(C)(C)CC2C)C(C#N)=C(N)Oc2n[nH]c(C)c21 (centres undefined) | 0.0461 |
| CCOC(=O)CC(NC(=O)c1cc2cc(Cl)cc(Cl)c2oc1=O)c1cccc([N+](=O)[O-])c1 (centres undefined) | 0.273 |
| CCOC(=O)c1ccc2[nH]c3c(c2c1)CN(C)CC3 | -0.323 |
| O=C(Nc1ncc(Cc2cccc(Cl)c2)s1)c1ccc([N+](=O)[O-])cc1 | -0.0217 |
| CC1=Nn2c(nc3sc4c(c3c2=O)CCCC4)SC1 | -0.324 |
| CCCCN(CCCC)C(=O)c1cc2ccccc2c(=O)o1 | -0.247 |
| COCC(=O)Nc1ccc([N+](=O)[O-])cc1C | 2.3 |
| Cc1c(NC(=O)C2(c3ccc(Cl)cc3)CCCC2)c(=O)n(-c2ccccc2)n1C | -0.385 |
| CC(C)CCn1nnnc1C(C(C)C)N1CCC(C(N)=O)CC1 (centres undefined) | 0.914 |
| O=C(C1CC(c2ccc(F)cc2)=NO1)N1CCc2ccccc2C1 (centres undefined) | -0.63 |
| Cc1ccc(NC(=S)N/N=C/c2ccc(OCCC(C)C)cc2)c(C)c1 | 0.599 |
| COCCOC(=O)C1=C(C)NC(=S)NC1/C=C/c1ccccc1 (centres undefined) | 0.0589 |
| CCCOC(=O)Nc1ccc(S(=O)(=O)Nn2cnnc2)cc1 | 0.519 |
| COc1ccc(C2=NN(C)C(=NCc3ccccc3)SC2)cc1 | 0.247 |

| SMILES | z-score |
| --- | --- |
| O=c1cc(O)c2c(=O)n(-c3ccccc3)c3c(c2o1)CCCCC3 | -0.286 |
| CCNc1ccc(S(=O)(=O)N(C)C)cc1NCC(=O)Nc1c(F)cccc1F | 0.108 |
| C=CCNC(=O)CN(c1ccc(F)c(Cl)c1)S(C)(=O)=O | -0.135 |
| CSc1nc(N)nc(SCC(=O)C(C)(C)C)c1C#N | -0.104 |
| O=S(=O)(NCc1ccco1)c1ccc(S(=O)(=O)N2CCCCC2)cc1 | -0.0699 |
| CC1=CC(C)(C)Nc2ccc(OS(=O)(=O)c3ccc(C)cc3)cc21 | -0.187 |
| O=S1(=O)CCN(Cc2ccccc2Cl)CC1 | 0.055 |
| Fc1ccc(CN2CCN(c3ncccn3)CC2)cc1 | -0.0123 |
| Cn1c(=O)c(C(=S)NC(=O)C2CC2)c(N)n(Cc2ccccc2)c1=O | 0.362 |
| O=C(COC(=O)c1cc(-c2cccs2)nc2ccccc12)NCc1ccco1 | -1.09 |
| COC(=O)c1sc(NC(=O)c2cc3c(s2)CCCC3)nc1C | -0.0712 |
| O=C1SC(c2ccccc2)=N/C1=C/c1ccco1 | 0.0802 |
| O=C(Nc1ccc(Br)cc1)c1ccc(Br)c(S(=O)(=O)Nc2cccnc2)c1 | -0.273 |
| Cc1ccc(C(C)C)c(OCc2ccc(-c3nnco3)cc2)c1 | 0.696 |
| COc1ccc(Nc2nnc(C)c(=O)[nH]2)cc1 | -0.104 |
| CCC(CO)n1cnnc1-c1ccncc1 (centres undefined) | 0.347 |
| CN1C(=O)C(O)(C2COC(C)(C)CC2=O)c2ccccc21 (centres undefined) | -1.06 |
| O=C(O)C1CCCN1C(=O)c1cccs1 (centres undefined) | 0.319 |
| COc1ccccc1C(=O)n1nc(C)cc1C | -0.428 |
| Cc1ccsc1C(=O)OCC(=O)N1CC(=O)Nc2ccccc21 | -0.081 |
| CCC(C)NC(=O)CN1C(=O)CC(C)(C)S(=O)(=O)c2ccccc21 (centres undefined) | active: 4.26 |
| COCCn1c(SCc2ccc(C(=O)OC)o2)nnc1-c1c[nH]c2ccccc12 | 0.184 |
| COc1cc(/C=N/Nc2nc(C)cc(C)n2)ccc1OC(=O)c1ccco1 | -0.738 |

| SMILES | z-score |
| --- | --- |
| COC(=O)c1cnn(C(=O)c2ccccc2Br)c1N | 0.0132 |
| Cc1ccc(OCc2cn3cccnc3n2)cc1 | 0.0265 |
| Cc1ccc(/C=C/C(=O)Nc2cc(=O)n(C)c(=O)n2C)o1 | -0.19 |
| CC(=O)N1CCc2cc(C(=O)CN3CCC(C)CC3)ccc21 | -0.0445 |
| CCCCN(CCCC)S(=O)(=O)c1ccc(NC(=O)c2ccc([N+](=O)[O-])cc2Cl)cc1 | active: 3.01 |
| COc1ccc(N2CC(=O)N(c3ccccc3)C2=S)cc1 | -0.224 |
| O=C(Nc1nncs1)c1ccc(Br)c(S(=O)(=O)N2CCCC2)c1 | -0.0849 |
| Cc1ccc(OCc2nc(C#N)c(NCc3ccco3)o2)cc1 | -0.912 |
| OCCCCNCc1ccc(OCc2ccc(Cl)cc2Cl)cc1 | 1.19 |
| O=C(CN1CCN(c2ccccc2)CC1)N1CCc2[nH]c3ccccc3c2C1 | -0.185 |
| CC(CCc1ccccc1)NC(=O)c1ccncc1 (centres undefined) | -0.0978 |
| O=C(NCc1ccc(N2CCCC2=O)cc1)Nc1ccccc1 | 0.218 |
| O=[N+]([O-])c1cccc(-c2n[nH]c(=S)n2Cc2ccccc2)c1 | -0.309 |
| O=C(NCC1CCCO1)c1ccc(CS(=O)(=O)c2c(Cl)cccc2Cl)o1 (centres undefined) | -0.0453 |
| CCCC(=O)N1CCN(c2ccc(NC(=O)c3cc4ccccc4o3)cc2)CC1 | -0.583 |
| CCC(=O)n1nc(-c2ccco2)nc1SCc1ccccc1 | -0.247 |
| O=C(O)CSc1nc(SCc2ccccc2Cl)nc2c1CCCC2 | -0.369 |
| Cc1noc(C)c1S(=O)(=O)N1CCC(C(=O)N2CCN(c3ccc(F)cc3)CC2)CC1 | -0.488 |
| CCOc1cc(C(=O)Nc2c(C)ccc3nsnc23)cc(OCC)c1OCC | -0.748 |
| Clc1ccc(-c2noc(CSc3nnc(-c4ccncc4)n3-c3ccccc3)n2)cc1 | -0.517 |
| Cc1c(Cl)cccc1NC(=O)c1cc(C2CC2)on1 | -0.0765 |
| O=C(CSc1nnc(-c2ccc(S(=O)(=O)N3CCOCC3)cc2)o1)c1ccccc1F | 0.206 |
